Results on 167 variants are retold here after the RNAGym collection of RNA variant scans (doi:10.7554/elife.90254).

Read counts are not given, so values of variants with three or more changes are uncertain.

B1: LINE1-full (parent)
chain: UACGUAGGUGGUUUUCCCCUGAUAGUGCUAAGGGGGCCUGGAAGUUUGGACUGGGCAGAGCUCAACACAGCGUGGCAAAGUGGCUGUGGCUAGACUGCCUCUCUGGAUUCCUCGUCACUCAGCAGGGCAUCUCUGAGAGAAAUGCC

In this data set the parent is B1. The data set can be described thus: self-cleavage, relative activity (ratio to wild type); higher = more cleavage; in vitro, sequencing; the parent is a self-cleaving ribozyme.
On to G36U U52A C128A, for which the self-cleavage came to 0.54. As for U9A U62C A124G, the figure is 0.24; as for U5C U15C G72U U104A U132C, 0.67; as for G33U A77G U81A, 2.61.

Consider U26C U104A A141G, for which the self-cleavage came to 1.25. As for G27U A50U A65U U73C, the figure is 0.03; as for U112A A124G U132A, 2.27; as for C3U U15C A65G G88A, 0.07. U73A A107G U130C A140U A141G: the self-cleavage was determined as 1.23. As for U104A U109C G126A, the figure is 1.45; as for A43G U45C U47C, 0.

Regarding G34U U45C G49A U108C, the self-cleavage stood at 2.02.

On to U1C A77G U104C A138G, for which the self-cleavage was 2.3. As for C90U A129G A141U, the figure is 0. Take U12A A64U U115C U130C: the self-cleavage was found to be 0.71. The value for U12G A64U U112C A142G was 0.76; that for A42G U81A C113U was 1.18. As for A43G G53A A78G, the figure is 0.56; as for C37U U104A A142G, 0.71.

On to U46C A50U A79G C145A, for which the self-cleavage amounted to 0.76. As for A92G U100C A138G, the figure is 0.22. As for G34C U47C C76U, the figure is 2.18. As for U39C A69U U130C, the figure is 0.14; as for C61A A65U U81A A92G, 0.11; as for U13C U23C A50U C113U C131U, 1.33. On to A22G A79G A140G, for which the self-cleavage came out at 0.34. The value for U26A U108A U119C was 0.28; that for U13A U26A U104A was 0.76; that for U87A U109C G126U was 0.09. As for G4A U20A U52C A141G, the figure is 1.29. As for G10A G32C U143C, the figure is 1.8; as for C84A C128U A129G, 0.07; as for U14A U46C A57G U112A A129G, 0.

A6G U115A U132C: the self-cleavage came to 1.11.

In the case of U26C A57U U100C A121U, the self-cleavage came out at 0. The value for U23C G55A U100C was 0.17. A31U A65U A79G: the self-cleavage turned out to be 0.2. The value for A30G A65G U130C A138G was 0; that for U52A G97U C145G was 0.13. As for U9C A57C C110U, the figure is 0.13; as for A77U U96C A121U A124G U143A, 0.04; as for A43G A59G G86A U102C, 0.1. The value for U20C G55A A64G U102A was 0.05; that for U14C U23C A42G G75A was 0.63; that for G4A U26C U109A was 1.35. As to U45G G89U A142G, the self-cleavage came to 0.03. As for A69U U96C A141G A142G, the figure is 0. Regarding A22G U102C G125U, the self-cleavage was determined as 1.34. The value for G27A A77G U87C was 0.2. As for A30U A77U U102C, the figure is 0.98. For the variant G34A U62C U87A U102C U132A, the self-cleavage stood at 0.04. The value for A64C A65U G88A was 0.03. As for A43G U62G G74A U100C, the figure is 0; as for U9C U52A U143C, 0.97. As for U13C U109C U112C A136G, the figure is 2.91. Take U12A A77G G86A: the self-cleavage came out at 0.13. As for G32A A124G A136U U143A, the figure is 1.56. The value for G49A A50G U115C U132C was 1.02; that for A42U A57U U100C U143A was 0.1. As for G44U U45C A141G, the figure is 1.66. For the variant U12A U26C A30G A43U A64U U115C, the self-cleavage amounted to 1.65. Consider U12C A57G A107U, for which the self-cleavage came to 0.85. As for U15A U81C A129U, the figure is 0.32; as for U26C U109C A117G, 0.57.

As for U9C A79G G83A U96C, the self-cleavage amounted to 0.18. On to G40A U96C U102C, for which the self-cleavage was 0.03. As for U5C A121G U132A, the figure is 0.67; as for G11U A42G A64G U115A, 0.26. The value for U47C A59G U87A U132C was 0.2; that for U12C A78G U119A A124U A140G was 1.57; that for A69U U85C U87C was 0.

C17U A121C A140G: the self-cleavage came out at 1.14. As for U13A A138U A140U, the figure is 1.19. The value for U9C A22G A42G A138C was 1.31; that for A59G U85C A140G was 0.09; that for U39C U108C U130C was 2.25.

Consider G127U A136G A138U, for which the self-cleavage came to 1.39. The value for U5A U26A G125A A142G was 0.71; that for A78G U85C U100C U134A was 0; that for A24G A77G A78G was 1.15. The value for U15C U20C G21A A107G U115C was 0. The value for U46C A77G A136U was 1.06; that for G4A U46C U91C U119C A142G was 0; that for U14C U26C A65G G127A A141G was 0.17. As to C18U U20A A92G, the self-cleavage was found to be 0. In the case of U15A U47A U73C U119C, the self-cleavage worked out at 0.88. A43U U73C A77G U108C G127U: the self-cleavage came out at 2.45. The value for U12G U96A A107G was 0.2; that for U73A U87C U96A G106A A140U was 0.03; that for U39A U85C A94G was 0.17. The value for A22C A79C U91C was 0; that for A2G A30G A57G C76U U109C A140G was 0.37; that for U14C U39A U46A A142G was 1.35. The value for U1A U9C U26C U102C was 0.

Consider U14A G88A U112C A121U, for which the self-cleavage worked out at 0.03.

Turning to A79G U81A A94G U100C G114A A138G, the self-cleavage was 0.

As for U39C U47G A77G, the self-cleavage is 1.47.

U12A U46C U81C U143C: the self-cleavage amounted to 1.44. The value for U39A A57G G86A U102A U112C was 0.04; that for A6U U73A A124G was 1.35. With A30G U46G A57U U109C, the self-cleavage came to 1.15. As for U47C U81C U96A C101U, the self-cleavage stood at 0.07.

Regarding A69G U112A A136G, the self-cleavage was found to be 0.46. As for U1C U26C A43G U143C, the figure is 1.61; as for A43U U134A A142C, 0.74.

Consider G54A U85C A124G, for which the self-cleavage was 0.06. As for A31C A43G A64C U100C, the figure is 0; as for U13A A142U U143A, 0.89; as for U9A C118U A142G, 1.71. The value for U13A G32A G33U A43G C61U A78C was 0.04; that for U29A A31G U39A G122A was 1.22. As for A78G A92G A121U, the figure is 0; as for A42G G97A A121G A142G, 0.22; as for C16U A50G U112C, 1.02. With G4A A65G U73A, the self-cleavage was determined as 0.03. In the case of A6U A24G A64C, the self-cleavage worked out at 0.36. The value for A31G G33A U132C A138G was 0.54. In the case of U9A G32A A42G U85C A141G, the self-cleavage was 0.1. For G25A U81C U91A A92G, the self-cleavage came out at 0. The value for A42G U46A A64G G114U was 0.19; that for U14C G114U U130A was 1.35; that for A24U U115C A129G A141U was 2.38.

Regarding C19U A117U A141G, the self-cleavage amounted to 1.23. The value for G55U G70U G97A U132C was 0.03. For U9C U26C G32U U62A, the self-cleavage is 0.22.

U9C G34A U39C G44A A79G: the self-cleavage was found to be 0.72. The value for G48A U100C A138G A141G was 1.67; that for U13C C61U A107G G137A was 0.04; that for G44A U100C G114U A124G A142G was 1.69. On to U12G U45C U62C U73C U104A A136G, for which the self-cleavage was 0.

In the case of A69G U108C U112A A140G, the self-cleavage stood at 1.34.

On to U14A A30G U39C, for which the self-cleavage worked out at 0. Regarding U14C U112A A129C, the self-cleavage amounted to 0.84. As for C17U A42U G97A, the figure is 0.07; as for A42U A67G G114A U115C, 0.34; as for A50G C63U U91A U134C, 0.06. The value for A67G U96G U132A was 0.3; that for A22C U39A C63U A77G A94G G106A was 0.11. The value for G36A U52C U73A A92G was 0.35; that for A43G U85C U143A was 0.14; that for C18U U20C U130C was 1.73. Regarding G4A A24U U81A, the self-cleavage was 2.77. The value for U9C U45C U85C U91A A129G was 0; that for A67U A117G A121U was 0.13; that for U15C A50G A107G was 1.62.

With C17U U26A U39C A78U, the self-cleavage came to 0.1. For the variant C19U U20C U91C, the self-cleavage turned out to be 0.33.

U87C A94G A141G A142G: the self-cleavage was 0.

Regarding A24G G89A U108C A142G, the self-cleavage was 0.1. The value for U9G A22G A124G was 0.42; that for U20C A79G A136G was 0.92.

For G35A U39A U100C, the self-cleavage was 1.35.

Take U52A U87A U102C: the self-cleavage is 0.38. As for G7A U62C A65G, the figure is 0.21. The value for G40A U85C U130A was 0.11; that for A24G U39A U91C was 0.84. The value for A22U A117G U132C was 0.98; that for U13C U47A U62A U104C A124G was 0.12. As for U23C A92G A141C, the self-cleavage amounted to 0.29. As to U109C U134C G137A, the self-cleavage stood at 0.84. The value for U9G A138G A141G was 0.88; that for C3U U62A A107G was 0.08; that for U13C G36C G48A G125A was 0.23. As for A50U A57G A69G A138G, the figure is 0.14; as for U5G U13C A94G, 0.21. As for U13C A117U A138U, the figure is 1.02; as for U9A A50G A136G, 0.89.
